# The list shows a part of the results.
# What was measured:
# [1] = tested on: HSkMC (human skeletal muscle cells); experiment: cytotoxicity call (relative viability < 0.9); settings: 10 µM
# [2] = tested on: HepG2; experiment: cytotoxicity call (relative viability < 0.9); settings: 10 µM
# [3] = tested on: S. aureus RN4220; experiment: growth inhibition call (relative growth <= 0.2); settings: 50 µM
SMILES,cytotoxicity call [1],cytotoxicity call [2],growth inhibition call [3]
CC(C)NC(=O)Nc1ccc2c(c1)CC(=O)N([C@@H](C)CO)C[C@@H](C)[C@H](CN(C)S(=O)(=O)c1ccc(F)cc1)O2,inactive,inactive,inactive
CC(C)NC(=O)N(C)C[C@@H]1Oc2ccc(NS(=O)(=O)c3ccc(Cl)cc3)cc2CC(=O)N([C@H](C)CO)C[C@@H]1C,inactive,inactive,inactive
COCCOC(=O)N1C(=O)[C@@]2(c3cc(C#CCCO)ccc31)[C@H](c1ccccc1OCCO)N1[C@H](c3ccccc3)[C@H](c3ccccc3)OC(=O)[C@H]1[C@@H]2C(=O)NC[C@H](O)c1ccccc1,inactive,inactive,inactive
Cc1noc(C)c1S(=O)(=O)N(C)C[C@@H]1OCCCC[C@@H](C)Oc2ccc(NC(=O)Nc3ccc(F)cc3)cc2C(=O)N([C@H](C)CO)C[C@@H]1C,inactive,inactive,inactive
O=C(C[C@H]1CC[C@H]2[C@@H](COC[C@@H](O)CN2C(=O)c2ccncc2)O1)NCc1ccc(-c2ccccc2)cc1,inactive,inactive,inactive
C[C@@H]1CCCCO[C@H](CN(C)S(=O)(=O)c2ccc(Cl)cc2)[C@@H](C)CN([C@H](C)CO)C(=O)c2cc(NC(=O)Nc3ccc(F)cc3)ccc2O1,inactive,inactive,inactive
O=C(O)c1cc2cc(F)ccc2s1,inactive,inactive,inactive
C[C@H](CO)N1C[C@H](C)[C@@H](CN(C)Cc2ccncc2)Oc2c(NC(=O)Cn3cnnn3)cccc2C1=O,inactive,inactive,inactive
Cc1ccc([C@@H]2CC(=O)N[C@@H]2C(N)=O)cc1,inactive,inactive,inactive
C[C@@H]1CN([C@H](C)CO)S(=O)(=O)c2ccc(C#Cc3ccc(F)cc3)cc2O[C@H]1CN(C)S(C)(=O)=O,inactive,inactive,inactive
COc1ccc(S(=O)(=O)N(C)C[C@H]2Oc3cc(C#CC4CC4)ccc3S(=O)(=O)N([C@@H](C)CO)C[C@@H]2C)cc1,inactive,inactive,inactive
C[C@H](CO)N1C[C@H](C)[C@H](CN(C)Cc2ccc(C(=O)Nc3ccccc3N)cc2)Oc2ccc(NC(=O)Nc3ccc(C(F)(F)F)cc3)cc2C1=O,active,active,inactive
Cc1noc(C)c1S(=O)(=O)N(C)C[C@@H]1Oc2ccc(NC(=O)Nc3ccccc3)cc2CC(=O)N([C@@H](C)CO)C[C@H]1C,inactive,inactive,inactive
CC(C)NC(=O)N(C)C[C@H]1Oc2ccc(NC(=O)Nc3ccc4c(c3)OCO4)cc2CC(=O)N([C@@H](C)CO)C[C@H]1C,inactive,inactive,inactive
COc1cccc(NC(=O)N[C@@H]2CC[C@H](CC(=O)N3CCOCC3)O[C@H]2CO)c1,inactive,inactive,inactive
C[C@H](CO)N1C[C@H](C)[C@H](CN(C)Cc2ccc(C(F)(F)F)cc2)OCCCC[C@H](C)Oc2ccc(NC(=O)Nc3ccc4c(c3)OCO4)cc2C1=O,inactive,inactive,inactive
Cn1c(=O)c2[nH]c(-[n+]3ccc(C(=O)O)cc3)nc2n(C)c1=O,inactive,active,inactive
C[C@@H]1CN([C@H](C)CO)C(=O)c2cc(C3=CCCCC3)cnc2O[C@H]1CN(C)C(=O)CN1CCOCC1,inactive,active,inactive
C=CCC[C@@H](Cc1ccc(F)cc1)C(=O)O[C@@H](CNC(=O)[C@@H](CC=C)CC(=O)N(CCO)Cc1ccccc1)c1ccccc1,active,active,inactive
C[C@H]1CCCCO[C@@H](CN(C)C(=O)C2CCCCC2)[C@@H](C)CN([C@@H](C)CO)C(=O)c2cc(NC(=O)C3CCCCC3)ccc2O1,inactive,inactive,inactive
O=C(C[C@@H]1C[C@@H]2c3cc(NC(=O)NC4CCCC4)ccc3O[C@@H]2[C@@H](CO)O1)NCc1ccc(-c2ccccc2)cc1,inactive,inactive,inactive
COC(=O)c1cn(CC(=O)Nc2ccon2)nn1,inactive,inactive,inactive
FC(F)(F)c1ccccc1/N=C1\CCCc2ccccc21,inactive,inactive,inactive
CC(C)(C)OC(=O)Cn1ccc(=O)[nH]c1=O,inactive,inactive,inactive
Cc1noc(C)c1S(=O)(=O)N(C)C[C@H]1Oc2ccc(NC(=O)CCCN(C)C)cc2CC(=O)N([C@H](C)CO)C[C@@H]1C,inactive,inactive,inactive
C[C@H]1CN([C@@H](C)CO)C(=O)c2cccc(NC(=O)c3ccc(-c4nccs4)cc3)c2O[C@@H]1CN(C)C(=O)NC1CCCCC1,inactive,inactive,inactive

# Source: the antibiotic and cytotoxicity screens of Wong et al. (2023)
